Read counts are not given, so values of variants with three or more changes are uncertain.
B1: LINE1-mini (parent)
chain: GGCAGAGCUCAACACAGCGUGGCAAAGUGGCUGUGGCUAGACUGCC

Variants of: B1
Experiment: self-cleavage, relative activity (ratio to wild type); higher = more cleavage; in vitro, sequencing; the parent is a self-cleaving ribozyme
Work on A6C C15U G35A yielded a self-cleavage of 0.03. Variant G1U G2U A25U has a self-cleavage of 0.1. Work on C8A A26U C31U yielded a self-cleavage of 0.15. Work on G5U G7U A14C G30U yielded a self-cleavage of 0.21. G1C A11C G17U U34C G35C G40A showed a self-cleavage of 0. G21C G36A C42A gave a self-cleavage of 0.1. In the case of G1A G2C A11U A39U, the self-cleavage is reported as 0.01. With G2U A24U G40U A41C C46G the self-cleavage was 0.01. Work on G29C G35U A41U yielded a self-cleavage of 0.04. Work on G2C C10U G19C yielded a self-cleavage of 0.02. With G7A A12C G27U G40U the self-cleavage was 0.01. In the case of C3G G19U G22U C45U, the self-cleavage is reported as 0.07. G2A G30U G36U showed a self-cleavage of 0.14. Variant G5C G19C C45G has a self-cleavage of 0.03. For C15G G17C G40U, the self-cleavage was 0.03. A4C U9C A14C G22C C45U gave a self-cleavage of 0.05. Variant A26C G40U A41U has a self-cleavage of 0.1. In the case of A4G G22C C45G, the self-cleavage is reported as 0.05. With G1U G17A C23A the self-cleavage was 0.23. Work on A12U G36A U38A U43A yielded a self-cleavage of 0.01. Variant G19A G30A G36U has a self-cleavage of 0.07. Variant G7U G21U G36U C37G A41G C45U has a self-cleavage of 0.01. With A4G C8U C18A C45G the self-cleavage was 0.03. Variant G7A C8G A11G C23U has a self-cleavage of 0.03. In the case of C3A G5A C10U A12C A25G, the self-cleavage is reported as 0.03. With C10G G19C U34C the self-cleavage was 0.07. A24C U28A C37A showed a self-cleavage of 0.11. A6U C15U C23U A24U gave a self-cleavage of 1.59. Variant G1U A14C A24C has a self-cleavage of 0.09. Variant G19A U20A G36U A41G has a self-cleavage of 0.04. In the case of A6C A11G U20G G29C, the self-cleavage is reported as 0.03. Variant C23G G27U G44A has a self-cleavage of 0.3. G1U C3G C37G gave a self-cleavage of 0.04. Variant U9A G27U G29U A39C has a self-cleavage of 0.06. Variant G5A G7U U32C has a self-cleavage of 0.19. In the case of C13U C31A C42A U43C, the self-cleavage is reported as 0.04. G1U G5C A14U G44U showed a self-cleavage of 0.01. Variant A6C A14G A25C G27U G30U G40A has a self-cleavage of 0.04. Work on A4G C10G C46U yielded a self-cleavage of 0.07. For A14C A24G G33C C37A C46G, the self-cleavage was 0.02. With G1A C8U C10G the self-cleavage was 0.04. For G29C A39U G40A, the self-cleavage was 0.02. With A6U C18U G44C the self-cleavage was 0.12. Variant C13G G27U G40U U43C has a self-cleavage of 0.02. C10A A11C A16C A24G C37G gave a self-cleavage of 0. In the case of C10A C23U G36C, the self-cleavage is reported as 0.01. Work on C8U U9A A12U G21C G30U yielded a self-cleavage of 0.09. In the case of U9A A14G U20C A24U, the self-cleavage is reported as 0.07. In the case of A24G G29C C37U, the self-cleavage is reported as 0.03. G7U G17A C23U U32G C46U gave a self-cleavage of 0.22. With G5A C23G A26G C37G G44U the self-cleavage was 0.02. G1A A24G U32A gave a self-cleavage of 0.11. In the case of G2C G19A C23G G27A, the self-cleavage is reported as 0.45. With G21U C23U A39C the self-cleavage was 0.08. G7A G22A C37U gave a self-cleavage of 0.04. Work on A6U G22C A26C G27C C37G yielded a self-cleavage of 0.02. In the case of A11U C15U G35A U38A, the self-cleavage is reported as 0.02. With A6U C15U U20A G22U C23U G36A C37A C42U the self-cleavage was 0.16. In the case of G7C G27U A39C U43C C46G, the self-cleavage is reported as 0.06. G7C A12C G33U showed a self-cleavage of 0.03. Variant G17U G19U U20A G22A G29U G44U has a self-cleavage of 0.02. C3G G7A U20C showed a self-cleavage of 0.07. With G2U A11C U38C C42G the self-cleavage was 0.01. With C13G C23A G27U C31G the self-cleavage was 0.04. Work on G1U U20A A25U A39C C46U yielded a self-cleavage of 0.02. Work on A12U C31U U32A A41G U43A C46G yielded a self-cleavage of 0.02. With G1A C13A A26C the self-cleavage was 0.13. G5A G33U G35U A39G gave a self-cleavage of 0.08. With A11G U28A G30U the self-cleavage was 0.03. Work on G2A C8G G21U C37G yielded a self-cleavage of 0.13. C15U G29C G40A gave a self-cleavage of 0.34. Work on G5C C8A U9C C13U C18A G33U yielded a self-cleavage of 0.03. Work on G7A U9A A11U U32A yielded a self-cleavage of 0.01. With C8U C15U C31G the self-cleavage was 0.18. Variant G2C C15U A26U U28G C46U has a self-cleavage of 0. With G2A G5A G17A G22U G44U the self-cleavage was 0.04. In the case of G2U C8U A25U G35C G44A, the self-cleavage is reported as 0.07. C10U G17A G19A A24C G30A C31U A41U showed a self-cleavage of 0.06. In the case of G2C C10G C13U G35U, the self-cleavage is reported as 0.03. In the case of A4U G5C A6C, the self-cleavage is reported as 0.1. Work on U9C A12C G19U A41U yielded a self-cleavage of 0.03. With C3A A16U C23A G30A G35C the self-cleavage was 0.16. With G22U U28G G30U G33C C37U the self-cleavage was 0.02. Work on C8A G27C G30C U32A G35C U43G G44A yielded a self-cleavage of 0.08. U9C A16U G30U A41U gave a self-cleavage of 0.09. G21A U28A A39C gave a self-cleavage of 0.04. For A14U A39U C46G, the self-cleavage was 0.07. For G19C A26C G40C, the self-cleavage was 0.02. Variant G17U G29C U32A G35U A41U has a self-cleavage of 0.21. With G2A C10A A14C G44A the self-cleavage was 0.04. For C10A U20A G44C, the self-cleavage was 0.03. With G19A A24G C45A the self-cleavage was 1.06. Work on A4U A16C A26C yielded a self-cleavage of 0.05. Work on C8G A14C G29A U32A yielded a self-cleavage of 0.06. Variant G17U U20G G35C has a self-cleavage of 0.03. With A24C U28A G35C the self-cleavage was 0.05. With G17A A24G G35C G44U the self-cleavage was 0.08. In the case of G2A A14U C18A C23U A25U C46U, the self-cleavage is reported as 0.05. For A6G G21A A24U C37U C45A, the self-cleavage was 0.07. G5U G7U C8A A14U C31A gave a self-cleavage of 0.05. C8A U28A C46A showed a self-cleavage of 0.08. With A11G G22A G33C the self-cleavage was 0.02. With C18A A24C G40A the self-cleavage was 0.03. Work on C10G C15U C31A G36C yielded a self-cleavage of 0.02. With C8U C10A C13A C15A G29U U38G the self-cleavage was 0.03. A4C C8A U9C A16G A26U G36A gave a self-cleavage of 0.09. Work on G1U A4U C15U G35U yielded a self-cleavage of 0.22. With U9A A14G C23U G40A the self-cleavage was 0.12. With G30U C31G U38A the self-cleavage was 0.01. U9A G21A A39G gave a self-cleavage of 0.21. In the case of A4C U9A C13U A14G C42A, the self-cleavage is reported as 0.02. In the case of A24C A41C C46A, the self-cleavage is reported as 0.17. U20G G21A G35U showed a self-cleavage of 0.07. In the case of U9C C18G U34C G40C G44A C46A, the self-cleavage is reported as 0.01. A14U G29A U34G showed a self-cleavage of 1.32. Variant G1C C8A A14U G27A G33A has a self-cleavage of 0.04. Variant A6U C31A G36U has a self-cleavage of 0.01. With G22U G33A U38C C46U the self-cleavage was 0.17. Work on G5U C8A C13G A14U G17U G21U A41G yielded a self-cleavage of 0.02. With G7U A11U U28C the self-cleavage was 0. For C31G C42A C45G, the self-cleavage was 0.04. In the case of G17C C18A C42U, the self-cleavage is reported as 0.19. For A12C C18G G30U C37A, the self-cleavage was 0. G7A C8G C46U gave a self-cleavage of 0.12. With A14G C37U C46G the self-cleavage was 0.01. Variant G1A G17U U28G G35C has a self-cleavage of 0.05. C8G C18A U20G A25G A26U G30A C46U showed a self-cleavage of 0.09. G7U G27A U43C showed a self-cleavage of 0.08. U9A C10A G22A showed a self-cleavage of 0. G5C A26G U38G G44C gave a self-cleavage of 0.03. In the case of A11G A16C G22C, the self-cleavage is reported as 0.01. In the case of G1A G7A C10U A11C, the self-cleavage is reported as 0.07. C3U U9A U20G G35A gave a self-cleavage of 0.48. In the case of C10G A16G U38C G40A C46U, the self-cleavage is reported as 0. In the case of C8G G30C G44U, the self-cleavage is reported as 0.05. Work on G2A C13U U32G U34G yielded a self-cleavage of 0.06. In the case of G1U A16U C46A, the self-cleavage is reported as 0.04. C10U G29U G44U gave a self-cleavage of 0. With A6C C13A C45U the self-cleavage was 0.04. In the case of G5C A16U G19U U20A G22C, the self-cleavage is reported as 0.03. C13G G17C G29U G40U gave a self-cleavage of 0.3. C3G C13G A16C A26G A41C showed a self-cleavage of 0.15. With A25G C42U C45U the self-cleavage was 0.02. A14U U34G G36A C42U showed a self-cleavage of 0.04. C3G A24G G33U gave a self-cleavage of 0.03. Variant C13A C18A U28C has a self-cleavage of 0.06. In the case of C13U G17C A25U, the self-cleavage is reported as 0.16. G2U C18G A24U G29U showed a self-cleavage of 0.01. Variant G1C A4U G33C C45A has a self-cleavage of 0.06. Work on C8G A11U G22A yielded a self-cleavage of 0.03. U9C A11U G36A G40C gave a self-cleavage of 0. In the case of C18U C31A G35A, the self-cleavage is reported as 0.03. Variant C15G G27U G40U has a self-cleavage of 0.1. Work on U9C C15U G22U G29C yielded a self-cleavage of 0.04. U9G A41C C46A gave a self-cleavage of 0.06. G2A C10A G30U G36C showed a self-cleavage of 0.03. Variant C15U G27U G35A C37A has a self-cleavage of 0.32. Variant G1C A25G U28C has a self-cleavage of 0.02. G17U C37U G44C showed a self-cleavage of 0.05. With A12C G33A A39C the self-cleavage was 0.03. C13A C18A G19C G22U A26U G27U gave a self-cleavage of 0.03. In the case of C15G G17C U20C G40C C42U, the self-cleavage is reported as 0. C8G C13A C31U C46G gave a self-cleavage of 0.04. With C18U G27U G30C C31A G40C the self-cleavage was 0.02. C31A C37U U43C gave a self-cleavage of 0.08. G1A C3G G7A gave a self-cleavage of 0.58. In the case of G5C G7U C23A G35C, the self-cleavage is reported as 0.53.
